Results are given in words; binding and its absence hold for the method and conditions named. Some entries that bind do so weakly or less than the wild type. Tags and fused reporters may be left off the sequences shown.
What was measured:
Test in all cases: two-hybrid; GAL4-AD (pGADT7, AH109) and GAL4-BD (pGBKT7, Y187) fusions mated; growth on -Leu-Trp-His with 3 mM 3-amino-1,2,4-triazole
[1] = target: MOM1 fused to GAL4-BD (pGBKT7) (Arabidopsis) (UniProt Q9M658)
[2] = target: Full-length MOM1 harboring the CMM2 mutations, fused to GAL4-BD (Arabidopsis) (UniProt Q9M658)
[3] = target: SUMO2 fused to GAL4-BD (Arabidopsis) (UniProt Q9FLP6)
[4] = target: SUMO1 fused to GAL4-BD (Arabidopsis) (UniProt P55852)

The chains behind the UniProt entries cited, without tags or fusion partners.
UniProt Q9FLP6: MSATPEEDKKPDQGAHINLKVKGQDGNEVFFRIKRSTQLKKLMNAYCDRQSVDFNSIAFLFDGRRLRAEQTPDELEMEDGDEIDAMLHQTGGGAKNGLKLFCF
UniProt P55852: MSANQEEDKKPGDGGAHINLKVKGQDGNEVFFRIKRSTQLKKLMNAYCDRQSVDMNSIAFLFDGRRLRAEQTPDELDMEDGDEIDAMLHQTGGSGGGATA

Row | Binder | binding [1] | binding [2] | binding [3] | binding [4]
1 | PIAL2 fused to GAL4-AD (pGADT7) (protein, UniProt F4JYG0 1-760) MSTAAAARPVAGTGLREKTAASLVNSFRLASVTQRLRYHIQDGAKVDPKEFQICCISFAKGIDFAIANNDIPKKVEEFPWLLKQLCRHGTDVYTKTALMVLMISVKHACHLGWFSDSESQELIALADEIRTCFGSSGSTSPGIKSPGSTFSQIMERFYPFVKLGHVLVSFEVKAGYTMLAHDFYISKNMPHSLQEKIRLFVAQTDNIDTSACISNPPEVSFLLNGKGVEKRVNIAMDTGPQLPTNVTAQLKYGTNLLQVMGNFKGNYIIIIAFTGLVVPPEKPVLKDYLQSGVIEASPDSDIIEGPSRVSLSCPISRKRIKLPVKGQLCKHLQCFDFSNYVHINMRNPTWRCPHCNQPVCYPDIRLDQNMAKILKDVEHNAADVIIDAGGTWKVTKNTGETPEPVREIIHDLEDPMSLLNSGPVVFDLTGDDDAELEVFGDNKVEDRKPCMSDAQGQSNNNNTNKHPSNDDYSSIFDISDVIALDPEILSALGNTAPQPHQASNTGTGQQYSNLSQIPMSIDPMPVPVPFSQTPSPRDRPATTSTVFTIPNPSPQYSQVHASPVTPTGTYLGRTTSPRWNQTYQSQAPPMTTPYTSRKVSVPVTSQSPANVSSFVQSQHVPRVLSQPNNYGVRGLTSSHASTSRQHPSGPTVQSVSRLSDLVDVDLTVPDTSNWRPRMRGSLVPGSHSTALDHMIIRPSQQSQTSTRLNSSQPVQTPSVQTSQAQSPFTTAAYRTETVLGNRNHPVPAPPGIVRPTGPTS | binds | binds | binds | –
2 | MOM1-P2 fused to GAL4-AD (domain or fragment, UniProt Q9M658 798-2001) GEDHIKLSDEESPNIFWSKLLGGKNPMWKYPSDTPQRNRKRVQYFEGSEASPKTGDGGNAKKRKKASDDVTDPRVTDPPVDDDERKASGKDHMGALESPKVITLQSSCKSSGTDGTLDGNDAFGLYSMGSHISGIPEDMLASQDWGKIPDESQRRLHTVLKPKMAKLCQVLHLSDACTSMVGNFLEYVIENHRIYEEPATTFQAFQIALSWIAALLVKQILSHKESLVRANSELAFKCSRVEVDYIYSILSCMKSLFLEHTQGLQFDCFGTNSKQSVVSTKLVNESLSGATVRDEKINTKSMRNSSEDEECMTEKRCSHYSTATRDIEKTISGIKKKYKKQVQKLVQEHEEKKMELLNMYADKKQKLETSKSVEAAVIRITCSRTSTQVGDLKLLDHNYERKFDEIKSEKNECLKSLEQMHDVAKKKLAEDEACWINRIKSWAAKLKVCVPIQSGNNKHFSGSSNISQNAPDVQICNNANVEATYADTNCMASKVNQVPEAENTLGTMSGGSTQQVHEMVDVRNDETMDVSALSREQLTKSQSNEHASITVPEILIPADCQEEFAALNVHLSEDQNCDRITSAASDEDVSSRVPEVSQSLENLSASPEFSLNREEALVTTENRRTSHVGFDTDNILDQQNREDCSLDQEIPDELAMPVQHLASVVETRGAAESDQYGQDICPMPSSLAGKQPDPAANTESENLEEAIEPQSAGSETVETTDFAASHQGDQVTCPLLSSPTGNQPAPEANIEGQNINTSAEPHVAGPDAVESGDYAVIDQETMGAQDACSLPSGSVGTQSDLGANIEGQNVTTVAQLPTDGSDAVVTGGSPVSDQCAQDASPMPLSSPGNHPDTAVNIEGLDNTSVAEPHISGSDACEMEISEPGPQVERSTFANLFHEGGVEHSAGVTALVPSLLNNGTEQIAVQPVPQIPFPVFNDPFLHELEKLRRESENSKKTFEEKKSILKAELERKMAEVQAEFRRKFHEVEAEHNTRTTKIEKDKNLVIMNKLLANAFLSKCTDKKVSPSGAPRGKIQQLAQRAAQVSALRNYIAPQQLQASSFPAPALVSAPLQLQQSSFPAPGPAPLQPQASSFPSSVSRPSALLLNFAVCPMPQPRQPLISNIAPTPSVTPATNPGLRSPAPHLNSYRPSSSTPVATATPTSSVPPQALTYSAVSIQQQQEQQPQQSLSSGLQSNNEVVCLSDDE | – | – | binds | binds
3 | MOM1-P3 fused to GAL4-AD (domain or fragment, UniProt Q9M658 1660-2001) TSVAEPHISGSDACEMEISEPGPQVERSTFANLFHEGGVEHSAGVTALVPSLLNNGTEQIAVQPVPQIPFPVFNDPFLHELEKLRRESENSKKTFEEKKSILKAELERKMAEVQAEFRRKFHEVEAEHNTRTTKIEKDKNLVIMNKLLANAFLSKCTDKKVSPSGAPRGKIQQLAQRAAQVSALRNYIAPQQLQASSFPAPALVSAPLQLQQSSFPAPGPAPLQPQASSFPSSVSRPSALLLNFAVCPMPQPRQPLISNIAPTPSVTPATNPGLRSPAPHLNSYRPSSSTPVATATPTSSVPPQALTYSAVSIQQQQEQQPQQSLSSGLQSNNEVVCLSDDE | – | – | binds | binds
4 | PIAL1 fused to GAL4-AD (protein, UniProt A0A0A7EPL0 1-847) MVIPATSRFGFRAEFNTKEFQASCISLANEIDAAIGRNEVPGNIQELALILNNVCRRKCDDYQTRAVVMALMISVKSACQLGWFPERETQELLAIIDLMWNGFSCPENVTSCVNSPVTLISQVIERFYPCVKLGHILVSFEAKPESKMMMKDFHISKKMPHSPKQKVGLFVVRTEDISRSNCIVHPQGVSFLLNGKGIDKRVNISMESGPQLPTNVTALLNLGANLLQAIGCFGGSYLIAIAFMDVIPLPNKPLLKDYVHPEVVGSNSDCDIIEGPSRISLSCPISRTRIKLPVKGHVCKHLQCFDFWNYVNMNTRRPSWRCPHCNQSVCYTDIRVDQKLRKILEEVGRNAADVVISADGTWMVETENDEDVELVPETTHDHGDPNSFINLGPTVKNPARDENEMETSTQVEEHNPCLSEIQGPSNDTHRPASDYTMLNQSHTSTNTLPQLPRTLNAFDGQQFVNLPQVINTRDSPASQALPMTFSPTPSPQDILATNAANFGTSMPAAQSSQFQGSHVTSLGNCEGRTSDLMARWNHIYGRVQTQFPPAPLSHHHYSMQNQSPSPAQQRPVPSYIAHPQTFHVNYGENADQRWMPSSIAHPQTLPVNYGGNTNQRPIPSSIAHPQTLPVNYRGNTDHRSTPYSITHLQTLLNYGGNADQRPMPSSITNLQTLPATYGGYAHQRPMSSSITHPRTSPVNYGGTPDQRPMPSSITHPQTLPVSYGGTTDQILNPGGAMGQFSSREFMNLTPANTENWRPQSRMRGSVAPGTGYDHMIIHPTRPVHPQAQTPPAPLSTSYDGADEIQAFIGHPSYPVSNNETQAGTSSLPVAEGLGYSGSFWSMPPETW | binds | binds | – | –
5 | MOM1-P1 fused to GAL4-AD (domain or fragment, UniProt Q9M658 1-832) MKKDEKIGLTGRTIYTRSLAASIPASVEQETPGLRRSSRGTPSTKVITPASATRKSERLAPSPASVSKKSGGIVKNSTPSSLRRSNRGKTEVSLQSSKGSDNSIRKGDTSPDIEQRKDSVEESTDKIKPIMSARSYRALFRGKLKESEALVDASPNEEELVVVGCSRRIPAGNDDVQGKTDCPPPADAGSKRLPVDETSLDKGTDFPLKSVTETEKIVLDASPIVETGDDSVIGSPSENLETQKLQDGKTDCSPPANAESKTLPVGETSLEKEYPQKFQDDNTDCLPPANAESKRLPVGETSLEKDTDFPLKSTTETGKMVLYASPIVETRDDSVICSPSTNLETQKLLVSKTGLETDIVLPLKRKRDTAEIELDACATVANGDDHVMSSDGVIPSPSGCKNDNRPEMCNTCKKRQKVNGDCQNRSVCSCIVQPVEESDNVTQDMKETGPVTSREYEENGQIQHGKSSDPKFYSSVYPEYWVPVQLSDVQLEQYCQTLFSKSLSLSSLSKIDLGALEETLNSVRKTCDHPYVMDASLKQLLTKNLELHEILDVEIKASGKLHLLDKMLTHIKKNGLKAVVFYQATQTPEGLLLGNILEDFVGQRFGPKSYEHGIYSSKKNSAINNFNKESQCCVLLLETRACSQTIKLLRADAFILFGSSLNPSHDVKHVEKIKIESCSERTKIFRLYSVCTVEEKALILARQNKRQNKAVENLNRSLTHALLMWGASYLFDKLDHFHSSETPDSGVSFEQSIMDGVIHEFSSILSSKGGEENEVKLCLLLEAKHAQGTYSSDSTLFGEDHIKLSDEESPNIFWSKLLGGKNPMWKYPSDTP | – | – | no binding | no binding
6 | MOM1-P4 fused to GAL4-AD (domain or fragment, UniProt Q9M658 1660-1860) TSVAEPHISGSDACEMEISEPGPQVERSTFANLFHEGGVEHSAGVTALVPSLLNNGTEQIAVQPVPQIPFPVFNDPFLHELEKLRRESENSKKTFEEKKSILKAELERKMAEVQAEFRRKFHEVEAEHNTRTTKIEKDKNLVIMNKLLANAFLSKCTDKKVSPSGAPRGKIQQLAQRAAQVSALRNYIAPQQLQASSFPAP | – | – | no binding | no binding

From PMC6084981
